Data on 31 molecules can be found in PMC9911399, “Two distinct binding modes provide the RNA-binding protein RbFox with extraordinary sequence specificity”.

Where a chain is given by its changes, count along the chain named. Some of the results follow.

B1: UGCGAGC (DNA:RNA)
RNA: GGGAGACCGGAAUUCAGAUUGUCCUGCGAGCUUAAAUCCCGUCGUAGCCACCA
DNA 1: CAATCTGAATTCCGGTCTCCC
DNA 2: TGGTGGCTACGACGGGATT
B2: UUCAAUA (DNA:RNA)
RNA: B1 RNA with G26U, G28A, G30U, C31A
DNA 1: CAATCTGAATTCCGGTCTCCC
DNA 2: TGGTGGCTACGACGGGATT
B3: AACACUC (DNA:RNA)
RNA: B1 RNA with U25A, G26A, G28A, A29C, G30U
DNA 1: CAATCTGAATTCCGGTCTCCC
DNA 2: TGGTGGCTACGACGGGATT
B4: GCGAUAC (DNA:RNA)
RNA: B1 RNA with U25G, G26C, C27G, G28A, A29U, G30A
DNA 1: CAATCTGAATTCCGGTCTCCC
DNA 2: TGGTGGCTACGACGGGATT
B5: GCAAUAU (DNA:RNA)
RNA: GGGAGACCGGAAUUCAGAUUGUCCGCAAUAUUUAAAUCCCGUCGUAGCCACCA
DNA 1: CAATCTGAATTCCGGTCTCCC
DNA 2: TGGTGGCTACGACGGGATT
B6: CCCCUGC (DNA:RNA)
RNA: B1 RNA with U25C, G26C, G28C, A29U
DNA 1: CAATCTGAATTCCGGTCTCCC
DNA 2: TGGTGGCTACGACGGGATT
B7: AUCCUGC (DNA:RNA)
RNA: B1 RNA with U25A, G26U, G28C, A29U
DNA 1: CAATCTGAATTCCGGTCTCCC
DNA 2: TGGTGGCTACGACGGGATT
B8: GCUAUAU (DNA:RNA)
RNA: B5 RNA with A27U
DNA 1: CAATCTGAATTCCGGTCTCCC
DNA 2: TGGTGGCTACGACGGGATT
B9: UGUUCUC (DNA:RNA)
RNA: B1 RNA with C27U, G28U, A29C, G30U
DNA 1: CAATCTGAATTCCGGTCTCCC
DNA 2: TGGTGGCTACGACGGGATT
B10: AACGGCA (DNA:RNA)
RNA: B1 RNA with U25A, G26A, A29G, G30C, C31A
DNA 1: CAATCTGAATTCCGGTCTCCC
DNA 2: TGGTGGCTACGACGGGATT
B11: AUGCGAA (DNA:RNA)
RNA: B5 RNA with G25A, C26U, A27G, A28C, U29G, U31A
DNA 1: CAATCTGAATTCCGGTCTCCC
DNA 2: TGGTGGCTACGACGGGATT
B12: UCAGGGA (DNA:RNA)
RNA: B1 RNA with G26C, C27A, A29G, C31A
DNA 1: CAATCTGAATTCCGGTCTCCC
DNA 2: TGGTGGCTACGACGGGATT
B13: UUUCACU (DNA:RNA)
RNA: B1 RNA with G26U, C27U, G28C, G30C, C31U
DNA 1: CAATCTGAATTCCGGTCTCCC
DNA 2: TGGTGGCTACGACGGGATT
B14: CUGGAGG (DNA:RNA)
RNA: B1 RNA with U25C, G26U, C27G, C31G
DNA 1: CAATCTGAATTCCGGTCTCCC
DNA 2: TGGTGGCTACGACGGGATT
B15: AUUGUGA (DNA:RNA)
RNA: B1 RNA with U25A, G26U, C27U, A29U, C31A
DNA 1: CAATCTGAATTCCGGTCTCCC
DNA 2: TGGTGGCTACGACGGGATT
B16: UUAAGUG (DNA:RNA)
RNA: B5 RNA with G25U, C26U, U29G, A30U, U31G
DNA 1: CAATCTGAATTCCGGTCTCCC
DNA 2: TGGTGGCTACGACGGGATT
B17: GGGAGUA (DNA:RNA)
RNA: B5 RNA with C26G, A27G, U29G, A30U, U31A
DNA 1: CAATCTGAATTCCGGTCTCCC
DNA 2: TGGTGGCTACGACGGGATT
B18: CGGCCUC (DNA:RNA)
RNA: B1 RNA with U25C, C27G, G28C, A29C, G30U
DNA 1: CAATCTGAATTCCGGTCTCCC
DNA 2: TGGTGGCTACGACGGGATT
B19: UUGACGU (DNA:RNA)
RNA: B5 RNA with G25U, C26U, A27G, U29C, A30G
DNA 1: CAATCTGAATTCCGGTCTCCC
DNA 2: TGGTGGCTACGACGGGATT
B20: GGGGAUG (DNA:RNA)
RNA: B1 RNA with U25G, C27G, G30U, C31G
DNA 1: CAATCTGAATTCCGGTCTCCC
DNA 2: TGGTGGCTACGACGGGATT
B21: CAUGUGA (DNA:RNA)
RNA: B1 RNA with U25C, G26A, C27U, A29U, C31A
DNA 1: CAATCTGAATTCCGGTCTCCC
DNA 2: TGGTGGCTACGACGGGATT
B22: ACACCCA (DNA:RNA)
RNA: B5 RNA with G25A, A28C, U29C, A30C, U31A
DNA 1: CAATCTGAATTCCGGTCTCCC
DNA 2: TGGTGGCTACGACGGGATT
B23: GCAAGAC (DNA:RNA)
RNA: B5 RNA with U29G, U31C
DNA 1: CAATCTGAATTCCGGTCTCCC
DNA 2: TGGTGGCTACGACGGGATT
B24: CGUCAGG (DNA:RNA)
RNA: B1 RNA with U25C, C27U, G28C, C31G
DNA 1: CAATCTGAATTCCGGTCTCCC
DNA 2: TGGTGGCTACGACGGGATT
B25: AUCCAGA (DNA:RNA)
RNA: B1 RNA with U25A, G26U, G28C, C31A
DNA 1: CAATCTGAATTCCGGTCTCCC
DNA 2: TGGTGGCTACGACGGGATT
B26: GAAUUGA (DNA:RNA)
RNA: B5 RNA with C26A, A28U, A30G, U31A
DNA 1: CAATCTGAATTCCGGTCTCCC
DNA 2: TGGTGGCTACGACGGGATT
B27: ACCAAAA (DNA:RNA)
RNA: B5 RNA with G25A, A27C, U29A, U31A
DNA 1: CAATCTGAATTCCGGTCTCCC
DNA 2: TGGTGGCTACGACGGGATT
B28: UUGCGUU (DNA:RNA)
RNA: B5 RNA with G25U, C26U, A27G, A28C, U29G, A30U
DNA 1: CAATCTGAATTCCGGTCTCCC
DNA 2: TGGTGGCTACGACGGGATT
B29: CGGCGUA (DNA:RNA)
RNA: B1 RNA with U25C, C27G, G28C, A29G, G30U, C31A
DNA 1: CAATCTGAATTCCGGTCTCCC
DNA 2: TGGTGGCTACGACGGGATT
B30: CAAGUGC (DNA:RNA)
RNA: B1 RNA with U25C, G26A, C27A, A29U
DNA 1: CAATCTGAATTCCGGTCTCCC
DNA 2: TGGTGGCTACGACGGGATT
B31: CUAGUCC (DNA:RNA)
RNA: B5 RNA with G25C, C26U, A28G, A30C, U31C
DNA 1: CAATCTGAATTCCGGTCTCCC
DNA 2: TGGTGGCTACGACGGGATT

For the test, the target named is T1, RBFOX1 RRM (Homo sapiens, UniProt Q9NWB1 109-208).
T1 sequence: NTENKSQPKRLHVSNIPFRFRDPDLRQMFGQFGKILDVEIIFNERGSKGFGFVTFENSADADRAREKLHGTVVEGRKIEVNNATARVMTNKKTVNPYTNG
Put plainly: EMSA; HiTS-Eq, 1 nM pool, 10 min; buffer printed only for the single-RNA assays: 10 mM Tris pH 7.5, 150 mM NaCl, 3.4 mM EDTA, 0.001% NP-40, 30 C. To be noted: tags: His6 N-terminal (pET28a); label: 5' 32P. The method, boiled down:
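Relative association constants, normalised to the cognate motif, were derived by comparing read counts of each RNA species with those of the control reaction. The RNA sequenced was the free fraction, separated by 8% native PAGE after a 10 min equilibration in 50 µL of 1 nM 5′-radiolabelled RNA (7 randomized nucleotides) with increasing concentrations of purified wild-type or mutant RbFox RRM.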
(In EMSA bound probe runs differently from free probe, usually more slowly.)
B1: the binding signal was 0.0213 KA relative to UGCAUGU. As for B2, the binding signal is 0.000788 KA relative to UGCAUGU. With B3, the binding signal is 0.000919 KA relative to UGCAUGU. Consider B4, for which the binding signal was 0.0101 KA relative to UGCAUGU. In the case of B5, the binding signal is 0.00254 KA relative to UGCAUGU. For the molecule B6, the binding signal was 0.00603 KA relative to UGCAUGU. For B7, the binding signal is 0.00705 KA relative to UGCAUGU. For B8, the binding signal is 0.0037 KA relative to UGCAUGU. On to B9, for which the binding signal is 0.0181 KA relative to UGCAUGU. Regarding B10, the binding signal is 0.0109 KA relative to UGCAUGU.

Turning to B11, the binding signal is 0.0081 KA relative to UGCAUGU. For B12, the binding signal was 0.00616 KA relative to UGCAUGU. The result for B13 reads 0.00695 KA relative to UGCAUGU; that for B14, 0.0136 KA relative to UGCAUGU; that for B15, 0.0109 KA relative to UGCAUGU. As for B16, the binding signal was 0.0196 KA relative to UGCAUGU.

Consider B17, for which the binding signal is 0.0237 KA relative to UGCAUGU. The result for B18 reads 0.0105 KA relative to UGCAUGU; that for B19, 0.0142 KA relative to UGCAUGU; that for B20, 0.0389 KA relative to UGCAUGU.

As for B21, the binding signal is 0.00902 KA relative to UGCAUGU. Turning to B22, the binding signal was 0.00153 KA relative to UGCAUGU. As to B23, the binding signal is 0.0118 KA relative to UGCAUGU. B24: the binding signal was 0.0101 KA relative to UGCAUGU.

B25: the binding signal is 0.00441 KA relative to UGCAUGU. B26: the binding signal is 0.0128 KA relative to UGCAUGU. As to B27, the binding signal was 0.00177 KA relative to UGCAUGU. As to B28, the binding signal is 0.0205 KA relative to UGCAUGU. Regarding B29, the binding signal is 0.0106 KA relative to UGCAUGU. As for B30, the binding signal is 0.00813 KA relative to UGCAUGU. Take B31: the binding signal was 0.00439 KA relative to UGCAUGU.
